{"source": "PubChem BioAssay AID588342", "about": "(National Center for Advancing Translational Sciences (NCATS), 2011)", "note": "Hit rate of the full screen: of about 360,000 compounds, about 25,000 (6.9%) were called active. Inconclusive means that the source gave no clear call. Such entries were picked first, then a sample of the others. The call rests on the fitted dose curve; in most records, active means well fitted inhibition curve with a large enough effect; inconclusive means small, poorly fitted or top-dose-only effect; inactive means flat fitted curve, though single readings scatter. Potencies beside an inconclusive call are fits to weak or partial responses and may not hold up. Potency means the concentration at half of the fitted maximal effect; tags describe the fitted curve by direction and shape.", "data": [{"biological_target": "Luciferin 4-monooxygenase (Photinus pyralis) (UniProt P08659)", "sequence (P08659 whole entry, looked up)": "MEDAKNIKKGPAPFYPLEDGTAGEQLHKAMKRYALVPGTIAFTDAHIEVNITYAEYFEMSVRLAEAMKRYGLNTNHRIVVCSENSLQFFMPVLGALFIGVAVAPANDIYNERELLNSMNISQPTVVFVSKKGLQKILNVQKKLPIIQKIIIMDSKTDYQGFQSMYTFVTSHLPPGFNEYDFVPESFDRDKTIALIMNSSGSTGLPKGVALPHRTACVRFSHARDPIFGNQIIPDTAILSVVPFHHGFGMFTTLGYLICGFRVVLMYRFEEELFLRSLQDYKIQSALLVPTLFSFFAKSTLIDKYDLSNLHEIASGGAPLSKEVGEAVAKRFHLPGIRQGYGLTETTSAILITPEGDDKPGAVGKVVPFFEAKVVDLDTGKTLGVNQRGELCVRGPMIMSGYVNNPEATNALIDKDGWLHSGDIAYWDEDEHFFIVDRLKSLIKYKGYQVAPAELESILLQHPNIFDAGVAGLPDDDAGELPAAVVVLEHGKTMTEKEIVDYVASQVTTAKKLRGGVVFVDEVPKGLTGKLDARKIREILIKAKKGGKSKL", "assay": "qHTS profiling assay for firefly luciferase inhibitor/activator using purifed enzyme and Km concentrations of substrates (counterscreen for miR-21 project); further: nearly all actives have a fitted effect of over 55% in size;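 on activity change, negative = inhibition: plate controls were vehicle for no effect and reference inhibitor for full effect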", "conditions": "purified FLuc, luminescence inhibition; series mostly up to 57.5 µM; activity change, negative = inhibition: at the top concentration", "how_it_was_run": "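Purified P. pyralis luciferase, 10 nM final, with Km-level 10 uM D-luciferin and 10 uM ATP in 50 mM Tris acetate pH 7.5, 10 mM Mg acetate, 0.01% Tween-20, 0.05% BSA; 6-point qHTS titration about 60 µM downward; luminescence read.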", "values": [{"smiles": "Cc1c(CC(=O)NCC(=O)NCC(=O)O)c(=O)oc2c(C)c3oc4c(c3cc12)CCCC4", "Potency": "inconclusive: 13.5 µM [inhibitor, partial curve]"}, {"smiles": "S=C(Nc1ccccc1Cl)NC1CCCCCC1", "Potency": "inconclusive: 26.9 µM [inhibitor, partial curve, poor fit]"}, {"smiles": "COc1cccc(C2=NN(S(C)(=O)=O)C(c3cn(-c4ccccc4)nc3-c3cccs3)C2)c1", "note": "(stereo not drawn)", "Potency": "inconclusive: 3.38 µM [inhibitor, partial curve, poor fit]"}, {"smiles": "O=c1c2cc(Br)ccc2nc(-c2ccc([N+](=O)[O-])cc2)n1O", "Potency": "inconclusive: 8.49 µM [inhibitor, partial curve]"}, {"smiles": "CCC(C)c1ccc(OCC(=O)O)cc1", "note": "(stereo not drawn)", "Potency": "inconclusive: 26.9 µM [inhibitor, partial curve, poor fit]"}, {"smiles": "COc1ccc(C(=O)Nc2ccc3c(c2)nc(CN2CCN(C(C)=O)CC2)n3C)cc1", "Potency": "inconclusive: 23.9 µM [inhibitor, single point]"}, {"smiles": "CCOC(=O)c1c(NC(=O)Nc2ccccc2)sc(C)c1C", "Potency": "inconclusive: 23.9 µM [inhibitor, partial curve]"}, {"smiles": "COc1ccccc1NC(=O)N1CC=C(c2c[nH]c3ccccc23)CC1", "activity change, negative = inhibition": "inactive: -3.39%"}, {"smiles": "[2H]C(CCOS(N)(=O)=O)c1ccc(C(C)(C)C)cc1", "note": "(stereo not drawn)", "Potency": "inconclusive: 21.3 µM [inhibitor, single point]"}, {"smiles": "Cc1ccc(-c2noc(-c3ccc(NCC4CCCO4)c([N+](=O)[O-])c3)n2)cc1", "note": "(stereo not drawn)", "Potency": "inconclusive: 16.9 µM [inhibitor, partial curve, poor fit]"}, {"smiles": "O=C(Nc1cc(N2CCOCC2)ncn1)c1ccccc1", "Potency": "inconclusive: 37.9 µM [inhibitor, partial curve, poor fit]"}, {"smiles": "COc1ccc(C2NC(=O)c3ccccc3N2)cc1", "note": "(stereo not drawn)", "Potency": "inconclusive: 37.9 µM [inhibitor, partial curve, poor fit]"}, {"smiles": "CC(=O)C1=C(C)NC(SCC(N)=O)=C(C#N)C1CC(C)C", "note": "(stereo not drawn)", "Potency": "inconclusive: 37.9 µM [inhibitor, partial curve, poor fit]"}, {"smiles": "CCSc1nnc([C@H](Cc2ccccc2)NC(=O)OC(C)(C)C)o1", "activity change, negative = inhibition": "inactive: 3.81%"}, {"smiles": "N#CC1=C(N)OC2=C(CCC/C2=C/c2ccoc2)C1c1ccoc1", "note": "(stereo not drawn)", "Potency": "inconclusive: 37.9 µM [inhibitor, partial curve, poor fit]"}, {"smiles": "COc1cc2c(cc1NC(=O)CN1C(=O)NC3(CCc4ccccc43)C1=O)oc1ccccc12", "note": "(stereo not drawn)", "Potency": "inconclusive: 23.9 µM [inhibitor, partial curve, poor fit]"}, {"smiles": "Cc1cc(C)n(-c2nc(SCC(=O)N3CCCC3)c3c4c(sc3n2)CCCC4)n1", "Potency": "inconclusive: 15.1 µM [inhibitor, partial curve, poor fit]"}, {"smiles": "CCC1=NN2C(=N)/C(=C\\c3cccn3-c3ccc(C)c(C)c3)C(=O)N=C2S1", "Potency": "inconclusive: 26.9 µM [inhibitor, single point]"}, {"smiles": "COc1ccc(/C=C/C(=O)c2ccc[nH]2)c(OC)c1OC", "Potency": "active: 8.49 µM"}, {"smiles": "COc1cccc(NC(=O)Cn2c(=O)n(CCCC(=O)NCc3ccc4c(c3)OCO4)c(=O)c3ccccc32)c1", "activity change, negative = inhibition": "inactive: -0.4%"}, {"smiles": "CCOc1cccc2cc(C(=O)NCc3ccc(C)cc3)c(=N)oc12", "Potency": "active: 15.1 µM"}, {"smiles": "ClCc1nnc(-c2ccccc2)o1", "activity change, negative = inhibition": "inactive: -8.73%"}, {"smiles": "CCc1nc(SCC(=O)NCC2CCCO2)c2oc3ccccc3c2n1", "note": "(stereo not drawn)", "Potency": "inconclusive: 5.36 µM [inhibitor, partial curve, poor fit]"}, {"smiles": "CCCn1c(COc2ccccc2)nc2ccccc21", "Potency": "inconclusive: 23.9 µM [inhibitor, partial curve, poor fit]"}, {"smiles": "CCc1cc2c(=O)[nH]c(-c3ccncc3)nc2s1", "Potency": "inconclusive: 10.7 µM [inhibitor, partial curve, poor fit]"}, {"smiles": "Cc1ccccc1C(=O)NNc1ncnc2c1cnn2C", "activity change, negative = inhibition": "inactive: 3.98%"}, {"smiles": "CC(C)(C)c1ccc(/C=N/NC(=O)C2CCCC2)cc1", "Potency": "active: 19 µM"}, {"smiles": "Nc1c(-c2ccc(Cl)cc2)nnn1-c1ccccc1", "Potency": "inconclusive: 10.7 µM [inhibitor, partial curve, poor fit]"}, {"smiles": "COc1ccc(-c2nc(CCNC(=O)c3cc(OC)c(OC)c(OC)c3)cs2)cc1", "Potency": "inconclusive: 15.1 µM [inhibitor, partial curve, poor fit]"}, {"smiles": "CCSc1ccc(-c2ccco2)nn1", "Potency": "inconclusive: 26.9 µM [inhibitor, partial curve]"}, {"smiles": "CNc1nnc(-c2cccc(N(C)C)c2)s1", "Potency": "active: 15.1 µM"}, {"smiles": "O=C(Nc1cccc(Cl)c1)C1COc2ccccc2O1", "note": "(stereo not drawn)", "Potency": "inconclusive: 12 µM [inhibitor, partial curve, poor fit]"}, {"smiles": "CS(=O)(=O)c1ccccc1COC(=O)Nc1ccc(Cl)cc1", "Potency": "inconclusive: 37.9 µM [inhibitor, partial curve, poor fit]"}, {"smiles": "O=C(N/N=C/c1ccccc1O)c1ccc2c(c1)OCO2", "Potency": "active: 2.69 µM"}, {"smiles": "CC(=O)Oc1ccc(Nc2ccccc2)cc1", "Potency": "inconclusive: 37.9 µM [inhibitor, single point]"}, {"smiles": "CCCOc1ccc(-c2nc(-c3ccc(N)cc3)cs2)cc1", "Potency": "active: 7.57 µM"}, {"smiles": "CC1=C(C(=O)Nc2ccccc2)C(c2ccc(C(=O)O)cc2)n2nc(SCC(=O)c3ccc(C)cc3)nc2N1", "note": "(stereo not drawn)", "Potency": "inconclusive: 37.9 µM [inhibitor, partial curve, poor fit]"}, {"smiles": "CCn1c(CSc2nnc(-c3ccc4c(c3)OCO4)o2)nc2cc(S(=O)(=O)N(C)C)ccc21", "Potency": "inconclusive: 13.5 µM [inhibitor, partial curve, poor fit]"}, {"smiles": "O=C(COc1ccc(Br)cc1)NCCCNC(=O)c1ccncc1", "activity change, negative = inhibition": "inactive: 2.61%"}, {"smiles": "Cn1ccsc1=NC(=O)c1ccc(OC(F)(F)F)cc1", "Potency": "active: 9.53 µM"}, {"smiles": "CCC(NC(=O)CCc1c(C)c2cc3c(-c4ccccc4)coc3cc2oc1=O)C(=O)O", "note": "(stereo not drawn)", "Potency": "inconclusive: 23.9 µM [inhibitor, partial curve, poor fit]"}, {"smiles": "O=C(/C=C/c1ccccc1)NCCSCc1ccccc1Cl", "Potency": "inconclusive: 37.9 µM [inhibitor, single point]"}, {"smiles": "O=C(NCCCn1ccnc1)c1cc(-c2ccccc2)on1", "Potency": "inconclusive: 30.1 µM [inhibitor, single point]"}]}]}
